The record followed here is publication PMC9911399, “Two distinct binding modes provide the RNA-binding protein RbFox with extraordinary sequence specificity”.

Positions count from the first letter of the chain named. Some of the results follow.

T1: RBFOX1 RRM RbFoxmut (Fox-RRM*) (Homo sapiens, UniProt Q9NWB1 109-208, R118D;E147R;N151S;E152T)
T1 sequence: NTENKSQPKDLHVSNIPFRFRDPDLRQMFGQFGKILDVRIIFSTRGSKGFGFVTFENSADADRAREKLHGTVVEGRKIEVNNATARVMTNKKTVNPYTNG

B1: CACCCAC (DNA:RNA)
RNA: GGGAGACCGGAAUUCAGAUUGUCCCACCCACUUAAAUCCCGUCGUAGCCACCA
DNA 1: CAATCTGAATTCCGGTCTCCC
DNA 2: TGGTGGCTACGACGGGATT
B2: GUUGCUU (DNA:RNA)
RNA: B1 RNA with C25G, A26U, C27U, C28G, A30U, C31U
DNA 1: CAATCTGAATTCCGGTCTCCC
DNA 2: TGGTGGCTACGACGGGATT
B3: CAAUAAA (DNA:RNA)
RNA: B1 RNA with C27A, C28U, C29A, C31A
DNA 1: CAATCTGAATTCCGGTCTCCC
DNA 2: TGGTGGCTACGACGGGATT
B4: CAAUGCC (DNA:RNA)
RNA: B1 RNA with C27A, C28U, C29G, A30C
DNA 1: CAATCTGAATTCCGGTCTCCC
DNA 2: TGGTGGCTACGACGGGATT
B5: AAAAGGU (DNA:RNA)
RNA: B1 RNA with C25A, C27A, C28A, C29G, A30G, C31U
DNA 1: CAATCTGAATTCCGGTCTCCC
DNA 2: TGGTGGCTACGACGGGATT
B6: AUCUUUA (DNA:RNA)
RNA: B1 RNA with C25A, A26U, C28U, C29U, A30U, C31A
DNA 1: CAATCTGAATTCCGGTCTCCC
DNA 2: TGGTGGCTACGACGGGATT
B7: CCAGCUC (DNA:RNA)
RNA: B1 RNA with A26C, C27A, C28G, A30U
DNA 1: CAATCTGAATTCCGGTCTCCC
DNA 2: TGGTGGCTACGACGGGATT
B8: AGACUAA (DNA:RNA)
RNA: B1 RNA with C25A, A26G, C27A, C29U, C31A
DNA 1: CAATCTGAATTCCGGTCTCCC
DNA 2: TGGTGGCTACGACGGGATT
B9: UCUACAC (DNA:RNA)
RNA: B1 RNA with C25U, A26C, C27U, C28A
DNA 1: CAATCTGAATTCCGGTCTCCC
DNA 2: TGGTGGCTACGACGGGATT
B10: UGGACUC (DNA:RNA)
RNA: B1 RNA with C25U, A26G, C27G, C28A, A30U
DNA 1: CAATCTGAATTCCGGTCTCCC
DNA 2: TGGTGGCTACGACGGGATT
B11: CUGAUUA (DNA:RNA)
RNA: B1 RNA with A26U, C27G, C28A, C29U, A30U, C31A
DNA 1: CAATCTGAATTCCGGTCTCCC
DNA 2: TGGTGGCTACGACGGGATT
B12: GGUGGAA (DNA:RNA)
RNA: B1 RNA with C25G, A26G, C27U, C28G, C29G, C31A
DNA 1: CAATCTGAATTCCGGTCTCCC
DNA 2: TGGTGGCTACGACGGGATT
B13: CAAGGCC (DNA:RNA)
RNA: B1 RNA with C27A, C28G, C29G, A30C
DNA 1: CAATCTGAATTCCGGTCTCCC
DNA 2: TGGTGGCTACGACGGGATT
B14: AUCGUGA (DNA:RNA)
RNA: B1 RNA with C25A, A26U, C28G, C29U, A30G, C31A
DNA 1: CAATCTGAATTCCGGTCTCCC
DNA 2: TGGTGGCTACGACGGGATT
B15: GAUUAUU (DNA:RNA)
RNA: B1 RNA with C25G, C27U, C28U, C29A, A30U, C31U
DNA 1: CAATCTGAATTCCGGTCTCCC
DNA 2: TGGTGGCTACGACGGGATT
B16: GAAAAUC (DNA:RNA)
RNA: B1 RNA with C25G, C27A, C28A, C29A, A30U
DNA 1: CAATCTGAATTCCGGTCTCCC
DNA 2: TGGTGGCTACGACGGGATT
B17: GACAUUC (DNA:RNA)
RNA: B1 RNA with C25G, C28A, C29U, A30U
DNA 1: CAATCTGAATTCCGGTCTCCC
DNA 2: TGGTGGCTACGACGGGATT
B18: CUAUGUU (DNA:RNA)
RNA: B1 RNA with A26U, C27A, C28U, C29G, A30U, C31U
DNA 1: CAATCTGAATTCCGGTCTCCC
DNA 2: TGGTGGCTACGACGGGATT
B19: GGCCAAG (DNA:RNA)
RNA: B1 RNA with C25G, A26G, C29A, C31G
DNA 1: CAATCTGAATTCCGGTCTCCC
DNA 2: TGGTGGCTACGACGGGATT
B20: CGACUGU (DNA:RNA)
RNA: B1 RNA with A26G, C27A, C29U, A30G, C31U
DNA 1: CAATCTGAATTCCGGTCTCCC
DNA 2: TGGTGGCTACGACGGGATT
B21: GGGAUUG (DNA:RNA)
RNA: GGGAGACCGGAAUUCAGAUUGUCCGGGAUUGUUAAAUCCCGUCGUAGCCACCA
DNA 1: CAATCTGAATTCCGGTCTCCC
DNA 2: TGGTGGCTACGACGGGATT
B22: GAGAGAU (DNA:RNA)
RNA: B21 RNA with G26A, U29G, U30A, G31U
DNA 1: CAATCTGAATTCCGGTCTCCC
DNA 2: TGGTGGCTACGACGGGATT
B23: ACGCUCC (DNA:RNA)
RNA: B1 RNA with C25A, A26C, C27G, C29U, A30C
DNA 1: CAATCTGAATTCCGGTCTCCC
DNA 2: TGGTGGCTACGACGGGATT
B24: CUUGAGA (DNA:RNA)
RNA: B1 RNA with A26U, C27U, C28G, C29A, A30G, C31A
DNA 1: CAATCTGAATTCCGGTCTCCC
DNA 2: TGGTGGCTACGACGGGATT
B25: ACCUUGC (DNA:RNA)
RNA: B1 RNA with C25A, A26C, C28U, C29U, A30G
DNA 1: CAATCTGAATTCCGGTCTCCC
DNA 2: TGGTGGCTACGACGGGATT
B26: CUUUCUA (DNA:RNA)
RNA: B1 RNA with A26U, C27U, C28U, A30U, C31A
DNA 1: CAATCTGAATTCCGGTCTCCC
DNA 2: TGGTGGCTACGACGGGATT
B27: GAAUGCC (DNA:RNA)
RNA: B1 RNA with C25G, C27A, C28U, C29G, A30C
DNA 1: CAATCTGAATTCCGGTCTCCC
DNA 2: TGGTGGCTACGACGGGATT
B28: AAAUUCA (DNA:RNA)
RNA: B1 RNA with C25A, C27A, C28U, C29U, A30C, C31A
DNA 1: CAATCTGAATTCCGGTCTCCC
DNA 2: TGGTGGCTACGACGGGATT
B29: AUUACCA (DNA:RNA)
RNA: B1 RNA with C25A, A26U, C27U, C28A, A30C, C31A
DNA 1: CAATCTGAATTCCGGTCTCCC
DNA 2: TGGTGGCTACGACGGGATT
B30: UGUCCGG (DNA:RNA)
RNA: B1 RNA with C25U, A26G, C27U, A30G, C31G
DNA 1: CAATCTGAATTCCGGTCTCCC
DNA 2: TGGTGGCTACGACGGGATT
B31: GCAGAGC (DNA:RNA)
RNA: B1 RNA with C25G, A26C, C27A, C28G, C29A, A30G
DNA 1: CAATCTGAATTCCGGTCTCCC
DNA 2: TGGTGGCTACGACGGGATT

The target in this test is T1, RBFOX1 RRM RbFoxmut (Fox-RRM*). In words: EMSA; HiTS-Eq, 1 nM pool, 10 min; buffer printed only for the single-RNA assays: 10 mM Tris pH 7.5, 150 mM NaCl, 3.4 mM EDTA, 0.001% NP-40, 30 C. As to conditions: tags: His6 N-terminal (pET28a); label: 5' 32P. The gist of the method: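 Purified RbFox RRM, wild type or mutant, was incubated for 10 min in 50 µL with 1 nM of a 5′-radiolabelled RNA pool carrying 7 randomized nucleotides, whose flanks were annealed to DNA oligonucleotides, over a series of increasing protein concentrations. Unbound RNA was resolved on 8% native PAGE, cut out, reverse-transcribed, barcoded by PCR and sequenced on an Illumina HiSeq 2500. Relative association constants were derived from changes in read counts for each RNA species versus the control reaction and normalised to the cognate motif.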
For B1, the binding signal was 0.0866 KA relative to UGCAUGU.

For the molecule B2, the binding signal is 0.0974 KA relative to UGCAUGU.

Regarding B3, the binding signal is 0.119 KA relative to UGCAUGU.

In the case of B4, the binding signal is 0.156 KA relative to UGCAUGU.

B5: the binding signal was 0.0808 KA relative to UGCAUGU.

For the molecule B6, the binding signal was 0.131 KA relative to UGCAUGU.

Take B7: the binding signal was 0.0912 KA relative to UGCAUGU.

Consider B8, for which the binding signal was 0.111 KA relative to UGCAUGU.

With B9, the binding signal is 0.0553 KA relative to UGCAUGU.

For the molecule B10, the binding signal was 0.0856 KA relative to UGCAUGU.

Consider B11, for which the binding signal is 0.0998 KA relative to UGCAUGU.

On to B12, for which the binding signal was 0.0957 KA relative to UGCAUGU.

Turning to B13, the binding signal is 0.146 KA relative to UGCAUGU.

As for B14, the binding signal is 0.0998 KA relative to UGCAUGU.

On to B15, for which the binding signal is 0.0889 KA relative to UGCAUGU.

As for B16, the binding signal is 0.0595 KA relative to UGCAUGU.

For the molecule B17, the binding signal was 0.0498 KA relative to UGCAUGU.

On to B18, for which the binding signal is 0.132 KA relative to UGCAUGU.

For the molecule B19, the binding signal is 0.0807 KA relative to UGCAUGU.

B20: the binding signal is 0.204 KA relative to UGCAUGU.

As to B21, the binding signal is 0.282 KA relative to UGCAUGU.

As for B22, the binding signal is 0.0959 KA relative to UGCAUGU.

B23: the binding signal is 0.0675 KA relative to UGCAUGU.

As to B24, the binding signal was 0.109 KA relative to UGCAUGU.

Take B25: the binding signal is 0.0942 KA relative to UGCAUGU.

Regarding B26, the binding signal is 0.0908 KA relative to UGCAUGU.

Regarding B27, the binding signal was 0.356 KA relative to UGCAUGU.

With B28, the binding signal was 0.102 KA relative to UGCAUGU.

Take B29: the binding signal is 0.115 KA relative to UGCAUGU.

With B30, the binding signal is 0.0882 KA relative to UGCAUGU.

B31: the binding signal was 0.0651 KA relative to UGCAUGU.
